Measurements reported in US7166622B2, “Substituted phenylsulfonamide inhibitors of beta amyloid production” (Wyeth, priority 2002, dated 2007).
Several values for one entry are separate records, joined by “and”; a condition that tells them apart may be missing. Equal values may be shown once. The name of at least one read-out is uncertain.

system: beta amyloid production; assay: Repressor Release Assay (RRA); format: cell-based; conditions: Conc 3 μg/ml; relative to Example 98
Experimental: CHO-K1 cells were cultured in whole DMEM media (DMEM—High Glucose with 10% fetal bovine serum, 1% Non-essential Amino Acids, and 1% Penicillin-Streptomycin) at 37° C. with 5% CO2. Two million cells were plated into 10-cm dishes 24 hrs prior to transfection.
Transient transfections were completed as recommended by Gibco BRL using their Lipofectamine Plus system. First, 6 μg of pRSVO-luc and 6 μg of APP-lacI construct DNA were added to 460 μL Opti-Mem transfection media and incubated with 30 μL Plus reagent for 15 minutes. Then, a lipid mixture of 40 μL Lipofectamine reagent and 460 μL Opti-Mem transfection media was incubated with the DNA-Plus reagent mixture for 15 minutes. During the DNA-lipid incubation, the CHO-K1 cells were washed once and covered in 5.0 mL DMEM media without Penicillin-Streptomycin. The DNA-lipid preparation was then layered onto these cells and incubated at 37° C. overnight.
[…] transfected cells per well (100 μL total volume) were plated into sterile, opaque Packard 96-well Culture-Plates in clear DMEM whole media (DMEM—without phenol red) and incubated at 37° C. with 5% CO2 for 3-5 hours.
Compounds were diluted using two different protocols; one protocol was used for compounds supplied neat (weighed powder in vial) and the other protocol was used for compounds supplied in solution (20 mM in DMSO in 96-well plates). For both protocols, 25 mM Hepes and 25 mM Hepes/1% DMSO were prepared fresh to be used as diluent. The Hepes/DMSO was used as the diluent control on all experimental plates.
The following table depicts the steps for compound dilution (please note that the last step was the addition of compound to cells/media in tissue culture plate).
Because some compounds were present in 96-well format at 20 mM, the following represents the protocol for their dilution (note that an average molecular weight of these compounds was used to calculate these dilutions and as above, the last step was the addition of compound to cells/media in tissue culture plate).
Once the compounds were diluted, they were applied in duplicate on cells in tissue culture plates (prepared above). Cells were incubated with compound at 37° C. with 5% CO2 for an additional 36-48 hours.
Luciferase assays (LucLite reagent, Packard) were performed and were read on a Packard TopCount instrument. Media was removed from each 96-well plate and replaced with 100 μL PBS per well (with Mg^2+ and Ca^2+). An equal volume (100 μL) of the LucLite lysis/substrate buffer was added to each well and the plates were sealed and mixed in the dark on a rotary shaker for 15-30 minutes at room temperature. Luciferase readings were then taken on the TopCount instrument. Measurements were expressed as relative light units (RLU) and are calculated and analyzed in MS Excel as follows: […]

Row | Compound | APPI % of Example #98 [%]
1 | CC[C@H](C)[C@@H](CO)NS(=O)(=O)c1ccc(Cl)cc1 [Example 91, 4-Chloro-N-[(1S,2S)-1-(hydroxymethyl)-2-methylbutyl]benzenesulfonamide] | 66.26
2 | CC[C@H](C)[C@@H](CO)NS(=O)(=O)c1ccc(Br)cc1 [Example 98, 4-bromo-N-[(1S,2S)-1-(hydroxymethyl)-2-methylbutyl]-benzenesulfonamide] | 69.39

same assay, conditions: Conc 10 μg/ml; relative to Example 98

Row | Compound | APPI % of Example #98
3 | CC[C@H](C)[C@@H](CO)NS(=O)(=O)c1ccc(Cl)cc1 [Example 91, 4-Chloro-N-[(1S,2S)-1-(hydroxymethyl)-2-methylbutyl]benzenesulfonamide] | 92.18%
4 | CC[C@H](C)[C@@H](CO)NS(=O)(=O)c1ccc(Br)cc1 [Example 98, 4-bromo-N-[(1S,2S)-1-(hydroxymethyl)-2-methylbutyl]-benzenesulfonamide] | 100% and 112.76% and 95.68%
5 | CCCC(CO)NS(=O)(=O)c1cccc(Cl)c1 (stereo not drawn) [Example 105, 3-chloro-N-[1-(hydroxymethyl)butyl]benzenesulfonamide] | 47.3%

same assay, conditions: Conc 20 μg/ml; luciferase activity over diluent control

Row | Compound | APPI Fold Increase [fold]
6 | O=S(=O)(NC1(CO)CCCC1)c1ccc(Br)cc1 [Example 94, 4-bromo-N-[1-(hydroxymethyl)cyclopentyl]benzenesulfonamide] | 1.7
7 | O=S(=O)(NC1(CO)CCCC1)c1ccc(Cl)cc1 [Example 103, 4-chloro-N-[1-(hydroxymethyl)cyclopentyl]benzenesulfonamide] | 1.5

same assay, conditions: Conc 20 μg/ml; relative to Example 98

Row | Compound | APPI % of Example #98
8 | CCCCCC[C@@H](c1ccco1)[C@@H](CO)NS(=O)(=O)c1ccc(Cl)cc1 [Example 68, 4-chloro-N-[(1S,2R)-2-(2-furyl)-1-(hydroxymethyl)octyl]benzenesulfonamide] | 47.5%
9 | CC(C)[C@H](C)[C@@H](CO)NS(=O)(=O)c1ccc(Cl)cc1 [Example 69, 4-chloro-N-[(1S,2S)-1-(hydroxymethyl)-2,3-dimethylbutyl]benzenesulfonamide] | 73%
10 | CCCCCC[C@@H](C(C)C)[C@@H](CO)NS(=O)(=O)c1ccc(Cl)cc1 [Example 70, 4-chloro-N-[(1S,2S)-1-(hydroxymethyl)-2-isopropyloctyl]benzenesulfonamide] | 48%
11 | COc1ccc([C@@H](C)[C@@H](CO)NS(=O)(=O)c2ccc(Br)cc2)cc1 [Example 71, 4-bromo-N-[(1S,2R)-1-(hydroxymethyl)-2-(4-methoxyphenyl)propyl]benzenesulfonamide] | 43.9%
12 | CC[C@H](CC(C)C)[C@@H](CO)NS(=O)(=O)c1ccc(Br)cc1 [Example 73, 4-bromo-N-[(1S,2R)-2-ethyl-1-(hydroxymethyl)-4-methylpentyl]benzenesulfonamide] | 127.1%
13 | CC[C@H](c1ccc(OC)cc1)[C@@H](CO)NS(=O)(=O)c1ccc(Br)cc1 [Example 74, 4-bromo-N-[(1S,2R)-1-(hydroxymethyl)-2-(4-methoxyphenyl)butyl]benzenesulfonamide] | 57.7%
14 | CCCCCC[C@@H](CC)[C@@H](CO)NS(=O)(=O)c1ccc(Br)cc1 [Example 75, 4-bromo-N-[(1S,2R)-2-ethyl-1-(hydroxymethyl)octyl]benzenesulfonamide] | 112.3%
15 | CCC[C@H](C)[C@@H](CO)NS(=O)(=O)c1ccc(Br)cc1 [Example 76, 4-bromo-N-[(1S,2S)-1-(hydroxymethyl)-2-methylpentyl]benzenesulfonamide] | 135.2%
16 | CCC[C@H](CC)[C@@H](CO)NS(=O)(=O)c1ccc(Br)cc1 [Example 77, 4-bromo-N-[(1S,2S)-2-ethyl-1-(hydroxymethyl)pentyl]benzenesulfonamide] | 139.8%
17 | CCC[C@H](CC(C)C)[C@@H](CO)NS(=O)(=O)c1ccc(Br)cc1 [Example 78, 4-bromo-N-[(1S,2R)-1-(hydroxymethyl)-4-methyl-2-propylpentyl]benzenesulfonamide] | 102.4%
18 | CCCCCC[C@@H](CCC)[C@@H](CO)NS(=O)(=O)c1ccc(Br)cc1 [Example 79, 4-bromo-N-[(1S,2R)-1-(hydroxymethyl)-2-propyloctyl]benzenesulfonamide] | 34.1%
19 | CCCCC[C@H](C)[C@@H](CO)NS(=O)(=O)c1ccc(Br)cc1 [Example 80, 4-bromo-N-[(1S,2S)-1-(hydroxymethyl)-2-methylheptyl]benzenesulfonamide] | 91.1%
20 | CCCCC[C@H](CC)[C@@H](CO)NS(=O)(=O)c1ccc(Br)cc1 [Example 81, 4-bromo-N-[(1S,2S)-2-ethyl-1-(hydroxymethyl)heptyl]benzenesulfonamide] | 118%
21 | C[C@@H](c1ccccc1)[C@@H](CO)NS(=O)(=O)c1ccc(Br)cc1 [Example 82, 4-bromo-N-[(1S,2S)-1-(hydroxymethyl)-2-phenylpropyl]benzenesulfonamide] | 66%
22 | CC[C@@H](c1ccccc1)[C@@H](CO)NS(=O)(=O)c1ccc(Br)cc1 [Example 83, 4-bromo-N-[(1S,2S)-1-(hydroxymethyl)-2-phenylbutyl]benzenesulfonamide] | 86.8%
23 | C[C@@H](c1ccco1)[C@@H](CO)NS(=O)(=O)c1ccc(Br)cc1 [Example 84, 4-bromo-N-[(1S,2R)-2-(2-furyl)-1-(hydroxymethyl)propyl]benzenesulfonamide] | 86.6%

Row | Compound | APPI % of Example #98
24 | CC[C@@H](c1ccco1)[C@@H](CO)NS(=O)(=O)c1ccc(Br)cc1 [Example 85, 4-bromo-N-[(1S,2R)-2-(2-furyl)-1-(hydroxymethyl)butyl]benzenesulfonamide] | 87.3%
25 | CC(C)C[C@@H](c1ccco1)[C@@H](CO)NS(=O)(=O)c1ccc(Br)cc1 [Example 86, 4-bromo-N-[(1S,2R)-2-(2-furyl)-1-(hydroxymethyl)-4-methylpentyl]benzenesulfonamide] | 41.4%
26 | CC(C)C[C@@H](C(C)C)[C@@H](CO)NS(=O)(=O)c1ccc(Br)cc1 [Example 87, 4-bromo-N-[(1S,2S)-1-(hydroxymethyl)-2-isopropyl-4-methylpentyl]benzenesulfonamide] | 223.8%
27 | CCCCCC[C@H](CC)[C@@H](CO)NS(=O)(=O)c1ccc(Cl)cc1 [Example 88, 4-Chloro-N-[(1 S,2S)-2-ethyl-1-(hydroxymethyl)octyl]benzenesulfonamide] | 27.9%
28 | CC[C@H](C)[C@@H](CO)N(C)S(=O)(=O)c1ccc(Cl)cc1 [Example 90, 4-Chloro-N-methyl-N-[(1S,2S)-1-(hydroxymethyl)-2-methylbutyl]benzenesulfonamide] | 54.4%
29 | CC(C)C[C@@H](CO)NS(=O)(=O)c1ccc(Cl)cc1 [Example 92, 4-chloro-N-[(1S)-1-(hydroxymethyl)-3-methylbutyl]benzenesulfonamide] | 43.2%
30 | C[C@@H](NS(=O)(=O)c1ccc(Cl)cc1)[C@@H](O)c1ccccc1 [Example 93, 4-chloro-N-[(1R,2S)-2-hydroxy-1-methyl-2-phenylethyl]benzenesulfonamide] | 39.2%
31 | O=S(=O)(NC1(CO)CCCC1)c1ccc(Br)cc1 [Example 94, 4-bromo-N-[1-(hydroxymethyl)cyclopentyl]benzenesulfonamide] | 69.2% and 38%
32 | O=S(=O)(N[C@H](CO)CC1CCCCC1)c1ccc(Cl)cc1 [Example 95, 4-chloro-N-[(1S)-2-cyclohexyl-1-(hydroxymethyl)ethyl]benzenesulfonamide] | 36.3%
33 | O=S(=O)(N[C@H](CO)Cc1ccc(OCc2ccccc2)cc1)c1ccc(Cl)cc1 [Example 96, N-{(1S)-1-[4-(benzyloxy)benzyl]-2-hydroxyethyl}-4-chlorobenzenesulfonamide] | 44.7%
34 | CC[C@](C)(CO)NS(=O)(=O)c1ccc(Cl)cc1 [Example 97, 4-chloro-N-[(1R)-1-(hydroxymethyl)-1-methylpropyl]benzenesulfonamide] | 47.3%
35 | CCCCC(CO)NS(=O)(=O)c1ccc(Br)cc1 (stereo not drawn) [Example 99, 4-bromo-N-[1-(hydroxymethyl)pentyl]benzenesulfonamide] | 42.9%
36 | O=S(=O)(N[C@H](CO)c1ccccc1)c1ccc(Br)cc1 [Example 101, 4-bromo-N-[(1S)-2-hydroxy-1-phenylethyl]benzenesulfonamide] | 42%
37 | CC(C)C[C@H](CO)NS(=O)(=O)c1ccc(Br)cc1 [Example 102, 4-bromo-N-[(1R)-1-(hydroxymethyl)-3-methylbutyl]benzenesulfonamide] | 39.6%
38 | CCCC(CO)NS(=O)(=O)c1ccc(Br)cc1 (stereo not drawn) [Example 104, 4-bromo-N-[1-(hydroxymethyl)butyl]benzenesulfonamide] | 31.2%
39 | O=S(=O)(N[C@H](CO)CC1CCCCC1)c1cccc(Cl)c1 [Example 106, 3-chloro-N-[(1S)-2-cyclohexyl-1-(hydroxymethyl)ethyl]benzenesulfonamide] | 32.8%
